Reference: PMC4336329 (PLoS ONE, 2015)
Out of some 310,000 compounds screened, about 14,000 (4.5%) showed an effect of 50% or more. The effect is printed as a negative number. The list shows a part of the results.

Molecular target: human ether-à-go-go-related gene (hERG) potassium channel (human, UniProt Q12809)
Test: primary screen, population patch clamp on CHO cells stably expressing hERG
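Note: peak tail current of the secondary pulse compared with the same well before compound.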

human ether-à-go-go-related gene (hERG) potassium channel, sequence (Q12809 whole entry, looked up): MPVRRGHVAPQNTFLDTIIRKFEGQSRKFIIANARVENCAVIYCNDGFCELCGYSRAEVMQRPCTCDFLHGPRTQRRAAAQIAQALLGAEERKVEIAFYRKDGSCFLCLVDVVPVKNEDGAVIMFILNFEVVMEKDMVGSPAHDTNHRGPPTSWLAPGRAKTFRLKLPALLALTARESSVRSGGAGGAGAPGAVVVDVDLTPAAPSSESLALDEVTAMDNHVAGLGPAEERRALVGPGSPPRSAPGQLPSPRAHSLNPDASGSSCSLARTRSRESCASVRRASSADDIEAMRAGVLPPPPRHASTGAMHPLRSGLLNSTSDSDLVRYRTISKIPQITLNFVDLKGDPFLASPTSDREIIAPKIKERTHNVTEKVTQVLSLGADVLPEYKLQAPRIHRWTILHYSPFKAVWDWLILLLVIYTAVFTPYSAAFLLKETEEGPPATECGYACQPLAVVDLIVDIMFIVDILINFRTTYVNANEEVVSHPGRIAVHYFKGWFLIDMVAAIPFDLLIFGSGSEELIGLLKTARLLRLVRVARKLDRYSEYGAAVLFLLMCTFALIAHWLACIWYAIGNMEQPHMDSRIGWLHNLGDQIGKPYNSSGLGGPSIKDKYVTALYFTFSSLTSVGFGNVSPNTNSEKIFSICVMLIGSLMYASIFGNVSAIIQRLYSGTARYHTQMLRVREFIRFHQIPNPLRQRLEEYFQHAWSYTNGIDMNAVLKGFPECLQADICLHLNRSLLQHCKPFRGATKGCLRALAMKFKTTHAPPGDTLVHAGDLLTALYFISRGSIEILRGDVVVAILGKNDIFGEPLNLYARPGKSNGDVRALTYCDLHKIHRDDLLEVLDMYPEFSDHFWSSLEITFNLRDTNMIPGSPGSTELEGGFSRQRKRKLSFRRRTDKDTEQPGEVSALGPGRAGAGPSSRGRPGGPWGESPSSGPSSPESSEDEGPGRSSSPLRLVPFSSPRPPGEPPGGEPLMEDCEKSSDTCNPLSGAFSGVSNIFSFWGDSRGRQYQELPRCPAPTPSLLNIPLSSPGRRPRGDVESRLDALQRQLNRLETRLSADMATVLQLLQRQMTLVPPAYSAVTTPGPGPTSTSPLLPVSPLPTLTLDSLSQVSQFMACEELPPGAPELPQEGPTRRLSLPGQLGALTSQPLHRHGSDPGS

SMILES | hERG current change (%, negative = inhibition) at 10uM
CSCC[C@H](NC(=O)OC(C)(C)C)C(=O)N1CCC(C(=O)NCC(=O)Nc2ccc(C)cc2)CC1 | 1.48%
O=C(c1cc(-c2ccc(O)cc2)on1)N1CCCc2ccccc21 | -29.5%
C/C(=N/OCO/N=C(\C)c1ccccc1)c1ccccc1 | 2.27%
O=S(=O)(O)c1ccc(SCc2ccccc2)nc1 | 13.5%
Cc1nc(NC2=NCN(CCCN3CCOCC3)CN2)nc2c(C)cccc12 | 2.1%
O=C(Nc1cccc(S(=O)(=O)N2CCCC2)c1)c1cccc(S(=O)(=O)N2CCOCC2)c1 | -15.5%
Cc1cccc(NC(=S)NC(=O)c2oc3ccccc3c2C)n1 | 24.1%
COc1cc(/C=C2\SC(=S)N(CCC(=O)Nc3ccccn3)C2=O)cc(OC)c1OC | 8.6%
COc1cc(/C=N/NC(=O)c2ccc(N)cc2)ccc1OC(=O)c1cccc(C)c1 | 6.14%
O=C(NCc1ccco1)c1ccc2[nH]c(=O)c(=O)[nH]c2c1 | 8.58%
Cc1cc(C)cc(-n2nnc(C(=O)NCc3ccc4c(c3)OCO4)c2N)c1 | -8.45%
Cc1ccc(N2CCN(C(=O)c3ccccc3NC(=O)c3ccccc3C(=O)O)CC2)cc1 | -2.27%
O=C(O)Cn1cc(C(=S)N2CCCCC2)c2ccccc21 | 35%
COc1ccc(C)cc1NC(=O)COC(=O)c1c(C)nn(-c2ccccc2)c1C | -3.03%
C=CCc1cc(C)ccc1OCC(O)CN1CCN(c2ccccc2)CC1 (stereo not drawn) | -47.5%
O=[N+]([O-])c1ccc2c(c1)nc1n2CCN(c2ccccc2)C1 | -26.1%
Cc1ccc(-c2nnn(CCC(=O)NC(C)(C)C)n2)cc1 | 12.2%
Cc1ccc(C(=O)NCc2ccc3c(c2)OCO3)cc1Cl | 17.9%
O=C(N/C(=C\c1cccs1)C(=O)N1CCCCCC1)c1ccccc1 | -32.3%

SMILES | hERG current change (%, negative = inhibition) at 10uM
CCN1C(=O)N(c2ccc(Cl)cc2)C(C)=CC1(C)C | 6.6%
CCCC(=O)N1CCN(c2ccc(NC(=O)c3ccc(N4CCCC4)c([N+](=O)[O-])c3)cc2Cl)CC1 | -30.4%
COCCCNC(=O)/C(C#N)=C/c1cc(C)[nH]c1C | -5.07%
O=C(NNC(=O)c1ncc(Cl)c(Cl)c1Cl)c1ccc(F)cc1 | 14.5%
Fc1cc2[nH]c(=S)[nH]c2c(Br)c1N1CCSCC1 | 17.6%
COc1ccc(C2CC(c3cccs3)=NN2C(=O)CSC2=NCCS2)cc1 (stereo not drawn) | -11%
CCOC(=O)Cc1csc(NC(=O)CSc2nnnn2-c2ccc(C)c(C)c2)n1 | 13.2%
Cc1ccc(C)c2[nH]c(=O)c(CN(CCN3CCCC3)C(=O)Nc3ccc(F)cc3)cc12 | -75.7%
CCOc1ccccc1OCCCC(=O)Nc1nc2ccccc2[nH]1 | 5.1%
O=C(CSc1ncc(-c2ccc(F)cc2)n1Cc1ccco1)Nc1ccc2c(c1)OCO2 | 10.2%
CCOC(=O)C1=C(N)OC2=C(C(=O)CC(C)(C)C2)C1C1CCCCC1 (stereo not drawn) | -5.17%
COc1ccc(-n2ccnc(SCC(=O)NC3CCCCC3)c2=O)cc1 | 17.1%
Cc1cc(C)cc(OCC(=O)Nc2ccc(N3CCN(C(=O)c4ccco4)CC3)cc2)c1 | -45.8%
COc1ccc(NC(=S)NCCN2CCOCC2)cc1 | 21.7%
CC(=O)N1CCC(N(CCN2CCOCC2)C(=O)Nc2ccc(Cl)c(Cl)c2)CC1 | -21.7%
Cc1cc(N/N=C/c2ccc(O)cc2O)nc(-n2nc(C)cc2C)n1 | 3.01%
O=C(Nc1ccccc1)N1CCC(c2ccccc2)C1 (stereo not drawn) | -4.49%
CCCCN(CC)CCCNC(=O)c1cc2c(-c3ccc(OC)c(OC)c3)nn(C)c2s1 | -7.25%
COc1ccc(/C=C2\SC(=O)N(CC(=O)NC3C=CS(=O)(=O)C3)C2=O)cc1 (stereo not drawn) | 15.9%

SMILES | hERG current change (%, negative = inhibition) at 10uM
CCN(CC(F)(F)C(F)F)S(=O)(=O)c1ccc(NC(=O)OC)cc1 | -5.93%
C=CCOc1nc2c(c(=O)n(Cc3ccc(Cl)c(Cl)c3)c(=O)n2C)n1C | 16.6%
Cc1cc(C)n(CC(=O)N/N=C/c2ccco2)n1 | -8.2%
CC(=O)Nc1ccc(S(=O)(=O)NNC(=O)c2cccc(Cl)c2)cc1 | 8.3%
Cn1cnc(S(=O)(=O)N2CCN(c3ccccc3)CC2)c1 | 17.3%
COc1ccccc1O | 15.4%
O=C(NCCc1ccccn1)c1cncc(Br)c1 | 11.7%
CCN(C(=O)C1CCCCC1)c1nnc(-c2cccnc2)s1.Cl | -8.54%
CCCOc1ccc(C2(C(=O)O)CCCC2)cc1 | 6.16%
CCOc1ccccc1C(=O)OCC(=O)NCC1CCCCC1 | -7.31%
Cc1ccc(C)c(N=Nc2nc3ccccc3n2C)c1 | -26.6%
COC(CNc1ncnc2sc(-c3ccccc3)cc12)OC | -24.1%
C[N+]1(C)CCC(OC(=O)C(c2ccccc2)c2ccccc2)CC1.[I-] | 1.2%
CCS(=O)(=O)NCc1ccc2[nH]c3c(c2c1)CCCC3 | 14.8%
CCN1CCN(CCCNC(=O)c2cc3c(=O)[nH]c4ccccc4c3s2)CC1 | -1.25%
COc1cc(C=Nc2cccc([N+](=O)[O-])c2C)ccc1OC(C)=O | 12.9%
CCOc1ccccc1CNS(=O)(=O)c1ccc2c(c1)oc(=O)n2C | -4.89%
Cc1sc2nc(SCCN(C)C)n(-c3ccccc3)c(=O)c2c1-c1ccc(F)cc1 | 0.83%
COC(=O)C(NC(=O)c1ccccc1C)(Nc1ncc(S(=O)(=O)c2ccc([N+](=O)[O-])cc2)s1)C(F)(F)F (stereo not drawn) | -33%
